{"source": "PubChem BioAssay AID1240", "about": "(Sanford-Burnham Center for Chemical Genomics, 2008)", "note": "The whole screen tested about 50,000 compounds, of which about 800 (1.6%) showed an effect of 50% or more. Some of the results follow."}
{"target": "Bcl-2-like protein 10 (Homo sapiens) (UniProt Q9HD36)", "sequence (Q9HD36 whole entry, looked up)": "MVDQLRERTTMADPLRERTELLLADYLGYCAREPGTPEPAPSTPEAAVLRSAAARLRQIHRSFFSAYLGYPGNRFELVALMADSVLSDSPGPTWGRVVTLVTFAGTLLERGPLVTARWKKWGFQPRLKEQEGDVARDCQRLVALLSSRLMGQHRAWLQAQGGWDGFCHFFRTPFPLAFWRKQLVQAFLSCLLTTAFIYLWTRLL", "experiment": "Phenotype converters, Bcl-B/TR3 peptide binding displacement, primary biochemical FP (AID 1240);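 note: 0% = Bcl-B with tracer peptide and DMSO and 100% = tracer peptide lacking Bcl-B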", "details": "GST-Bcl-B / FITC-TR3 peptide fluorescence polarization; stronger effect = higher value; compound at 3.75 mg/L", "units": {"displacement": "%"}}
{"smiles": "COC(=O)CN(c1cc(C)ccc1OC)S(=O)(=O)c1ccccc1", "displacement": 12.7}
{"smiles": "OC(COc1ccc(Cl)cc1)CSc1ncn[nH]1", "note": "(stereo unspecified)", "displacement": -2.1}
{"smiles": "COc1ccc(N(CC(=O)NCc2ccncc2)S(=O)(=O)c2ccc(C)cc2)cc1", "displacement": 7.5}
{"smiles": "COc1ccc(CN2CCN(S(=O)(=O)c3ccccc3)CC2)cc1OC", "displacement": -10.4}
{"smiles": "CCOC(=O)C1=C(C)N=c2s/c(=C\\C=C\\c3ccco3)c(=O)n2C1c1ccc(OC)cc1", "note": "(stereo unspecified)", "displacement": 63.9}
{"smiles": "Cc1ccc(-c2ccc(C(=O)Nc3cccnc3)o2)cc1Cl", "displacement": 5.6}
{"smiles": "COc1ccc(CCNC(=O)C(=O)Nc2cccc(C(F)(F)F)c2)cc1", "displacement": -7.6}
{"smiles": "COc1ccc(C2/C(=C(/O)c3ccccc3)C(=O)C(=O)N2c2nc3ccccc3s2)cc1", "note": "(stereo unspecified)", "displacement": -9.1}
{"smiles": "O=C(c1ccc([N+](=O)[O-])cc1)N1CCN(Cc2ccccc2Cl)CC1", "displacement": -12.7}
{"smiles": "CC(C)(C)NC(=O)c1nn2c(c1Br)NC(c1cccs1)CC2C(F)(F)F", "note": "(stereo unspecified)", "displacement": 3.6}
{"smiles": "COc1ccc(C(=O)N2CCN=C2c2ccccc2)cc1OC", "displacement": 11.9}
{"smiles": "COc1ccccc1/C=C1\\SC(=S)N(Nc2nc(C)cc(C)n2)C1=O", "displacement": -5.6}
{"smiles": "COc1ccccc1C/C(N)=N/OC(=O)c1ccc(Cl)cc1", "displacement": 13.6}
{"smiles": "CSc1ccc(/C=N/Nc2nc(Nc3ccccc3)nc(N3CCOCC3)n2)cc1", "displacement": 1}
{"smiles": "O=C(O)CCCCCN1C(=O)C(=O)/C(=C(/O)c2ccc([N+](=O)[O-])cc2)C1c1ccc(Cl)cc1", "note": "(stereo unspecified)", "displacement": -2.6}
{"smiles": "CC(=O)Oc1c(/C=C(\\C#N)C(N)=O)[nH]c2ccccc12", "displacement": 1.8}
{"smiles": "O=[N+]([O-])c1cc(-c2ccn[nH]2)c(Cl)cc1Cl", "displacement": 4.5}
{"smiles": "COC(=O)CN1C(=O)/C(=C\\c2c(F)cccc2Cl)SC1=S", "displacement": -1.3}
{"smiles": "Cc1ccc(C(=O)NC(=S)Nc2ccc(N3CCCCC3)cc2)cc1", "displacement": 0.6}
{"smiles": "CN1C(=O)/C(=C2\\SC(=S)N(c3cccc(Cl)c3)C2=O)c2ccccc21", "displacement": 15.9}
{"smiles": "CC(=O)NC1=NC(=O)/C(=C\\c2ccc(-c3cccc([N+](=O)[O-])c3)o2)S1", "displacement": -21.3}
{"smiles": "CCOC(=O)c1c(C)nc(-c2ccccc2)nc1NC(=O)c1ccccc1", "displacement": 6.3}
{"smiles": "O=C(NCC1CCCO1)C(=O)Nc1ccc(F)cc1", "note": "(stereo unspecified)", "displacement": 9}
{"smiles": "CCOC(=O)c1ccc(NC(=O)/C(=C\\c2cccc([N+](=O)[O-])c2)NC(=O)c2ccccc2)cc1", "displacement": 12}
{"smiles": "O=C(NC(Nc1ccc(F)cc1)C(Cl)(Cl)Cl)c1ccco1", "note": "(stereo unspecified)", "displacement": -9.1}
{"smiles": "O=C(NCc1ccco1)C(=O)N1CCCC1", "displacement": 11.9}
{"smiles": "CC(=O)Nc1ccc(NC(=O)COc2ccc(Br)c(C)c2)cc1", "displacement": 1.1}
{"smiles": "COc1cccc(C2C(C(=O)Nc3ccccc3)=C(C)N=c3s/c(=C/c4ccccc4OC)c(=O)n32)c1", "note": "(stereo unspecified)", "displacement": 12.1}
{"smiles": "N#C/C(=C/c1cccc(Cl)c1)c1nc(-c2ccc(Cl)cc2)cs1", "displacement": -4.7}
{"smiles": "O=C(Nc1ccccc1)N1CCN(Cc2ccc3c(c2)OCO3)CC1", "displacement": -7.4}
{"smiles": "O=C(NC1CCCCCC1)c1ccc([N+](=O)[O-])o1", "displacement": -9.7}
{"smiles": "COc1ccc(N2C(=O)/C(=C\\c3cccc(OC(=O)c4ccco4)c3)SC2=S)cc1", "displacement": 5.7}
{"smiles": "O=C(Nc1c(Cl)cccc1Cl)c1ccc(F)cc1", "displacement": -2.7}
{"smiles": "O=C(Nc1ccc(Cl)c(Cl)c1)Nc1nnc(CSCc2ccccc2)s1", "displacement": 2.9}
{"smiles": "COc1cc(NC(=O)c2cc(Cl)ccc2Cl)ccc1NC(=O)c1ccco1", "displacement": 11.2}
{"smiles": "C=CCN1C(=O)/C(=C\\c2ccc(OC)cc2)SC1=Nc1ccccc1", "displacement": 14.7}
{"smiles": "COc1ccc(OCC(=O)N/N=C/c2ccc(C)cc2)cc1", "displacement": -3.8}
{"smiles": "CC(C)C12CN(C(=O)c3ccccc3)CC(C(C)C)(CN(C(=O)c3ccccc3)C1)C2=O", "displacement": 7.6}
{"smiles": "S=C(NCCSc1ccccn1)Nc1ccccc1", "displacement": -8.2}
{"smiles": "CCOC(=O)C1=C(O)/C(=C/c2ccc(OC)cc2OC)SC1=Nc1ccccc1", "displacement": -62}
{"smiles": "O=C(CNC(=O)/C(=C\\c1ccccc1F)NC(=O)c1ccccc1)OCc1ccccc1", "displacement": -3.5}
{"smiles": "N#CCC(=O)NNCc1cc(-c2ccccc2)n(-c2ccccc2)c1-c1ccccc1", "displacement": 32.7}
{"smiles": "Cc1ccc(C2(c3ccc(C)cc3)C(=O)NCc3ccccc32)cc1", "displacement": -1.2}
{"smiles": "S=c1[nH]nc(-c2ccccc2)c2ccccc12", "displacement": 7.9}
{"smiles": "O=C(Nc1ccccc1C(=O)O)c1ccc2c(c1)C(=O)N(c1cccc([N+](=O)[O-])c1)C2=O", "displacement": 20}
{"smiles": "COc1ccc(CC(=O)O/N=C(\\N)c2ccc(Br)cc2)cc1OC", "displacement": 6.5}
{"smiles": "COc1ccc(OC)c(NC2=NC3(CCCCC3)N=C(N)N2)c1", "displacement": -0.5}
{"smiles": "O=C(NCCN1CCCCC1)/C(=N\\O)c1ccccn1", "displacement": -1.8}
{"smiles": "COc1ccc(C2OCC3(CO2)SC2=NCN(C)CN2C3=O)cc1OC", "note": "(stereo unspecified)", "displacement": 11.9}
{"smiles": "O=C(c1ccccc1)N1CCN=C1c1ccccc1", "displacement": 8.7}
{"smiles": "CC(Oc1ccccc1)C(=O)Nc1ccc(Cl)c(C(N)=O)c1", "note": "(stereo unspecified)", "displacement": 3.2}
{"smiles": "C/C(=N\\NC(=O)CCN1CCN(C)CC1)c1ccc(O)cc1", "displacement": -0.7}
{"smiles": "CC(C)c1ccc(-c2cc(C(=O)O)c3ccccc3n2)cc1", "displacement": -0.7}
{"smiles": "COc1ccc(C(=O)CC(Nc2ccc([N+](=O)[O-])cc2)c2ccc(Cl)cc2)cc1", "note": "(stereo unspecified)", "displacement": -4.2}
{"smiles": "COc1c(Br)cc(Br)cc1/C=N\\NC(=O)c1ccc([N+](=O)[O-])cc1", "displacement": 7.8}
{"smiles": "COc1cccc(N2C(=O)C(=O)/C(=C(\\O)c3ccccc3)C2c2ccccc2Cl)c1", "note": "(stereo unspecified)", "displacement": -2.1}
{"smiles": "COc1ccc(Cl)cc1N(CC(=O)N1CCCCC1)S(=O)(=O)c1ccc(C)c([N+](=O)[O-])c1", "displacement": 2.3}
{"smiles": "O=C(c1ccc(F)cc1F)N1CCN(c2cc(N3CCCCC3)c(F)cc2[N+](=O)[O-])CC1", "displacement": -8}
{"smiles": "COc1cc(/C=C2/C(=O)NC(=O)N(c3ccccc3C)C2=O)ccc1OCCOc1ccccc1", "displacement": 69.3}
{"smiles": "O=C(Cc1ccc(Br)cc1)Nc1ccc(Cl)c([N+](=O)[O-])c1", "displacement": 11.1}
{"smiles": "Cn1c(O)c(N=NC(N)=O)c2ccccc21", "displacement": 6.6}
{"smiles": "CN1C(=O)/C(=C\\c2ccc(OCCOc3ccc(Br)cc3)cc2)SC1=S", "displacement": 16.9}
{"smiles": "Cc1cccc(C(=O)N(C(=O)c2cccc(C)c2)c2ncccn2)c1", "displacement": 0.4}
{"smiles": "CCOc1ccc(C(=O)Nc2cccc(NC(=O)c3cccc4ccccc34)c2)cc1", "displacement": 8.6}
{"smiles": "C=CCn1c(C)nc2c(cnn2-c2ccccc2)c1=O", "displacement": -0.7}
{"smiles": "O=C(CSc1ncn[nH]1)Nc1ccc(Cl)cc1", "displacement": -4.9}
{"smiles": "O=C(NC(Nc1ccccc1F)C(=O)c1ccccc1)c1ccco1", "note": "(stereo unspecified)", "displacement": 4.5}
{"smiles": "CC(=O)N1C(=O)/C(=C2\\SC(=S)N(Cc3ccccc3)C2=O)c2ccccc21", "displacement": -15}
{"smiles": "O=C(Cc1ccccc1[N+](=O)[O-])Nc1ccc(OCc2ccccc2)cc1", "displacement": 4.7}
{"smiles": "O=C(Nc1ccccc1I)C1CC(=O)N(c2ccc(Cl)cc2)C1", "note": "(stereo unspecified)", "displacement": 7.5}
{"smiles": "CCC(C)N1CCN(S(=O)(=O)c2ccccc2)CC1", "note": "(stereo unspecified)", "displacement": -11}
{"smiles": "CC(=O)c1ccc(S(=O)(=O)NCc2cccnc2)cc1", "displacement": 8}
{"smiles": "COC(=O)/C=C(\\C)NCCN/C(C)=C/C(=O)OC", "displacement": -11.3}
{"smiles": "O=C(CCN1C(=O)c2cccc3cccc(c23)C1=O)NCc1ccco1", "displacement": -2.6}
{"smiles": "COc1ccccc1N1C(=O)c2ccc(C(=O)Nc3cc(C(=O)O)ccc3C)cc2C1=O", "displacement": -4.5}
{"smiles": "CCC(C)(C)C1CCc2c(sc(NC(=O)c3ccc([N+](=O)[O-])c(C)c3)c2C(N)=O)C1", "note": "(stereo unspecified)", "displacement": -0.5}
{"smiles": "CC(=O)c1ccc(N2C(=O)CC(N(C)Cc3ccccc3)C2=O)cc1", "note": "(stereo unspecified)", "displacement": -3.3}
{"smiles": "CCOC(=O)c1c(NC(=O)C23CC4CC(CC(C4)C2)C3)sc(C(=O)Nc2ccccc2F)c1C", "displacement": -3.9}
{"smiles": "Cc1onc(-c2ccccc2)c1C(=O)Nc1ccc([N+](=O)[O-])cc1Cl", "displacement": 1.5}
{"smiles": "COc1ccc(C2/C(=C(\\O)c3ccc(Cl)cc3)C(=O)C(=O)N2CCCCCC(=O)O)cc1OC", "note": "(stereo unspecified)", "displacement": -5.1}
{"smiles": "O=C(NNC(=O)c1cc(NC(=O)c2ccc([N+](=O)[O-])cc2)cc(C(=O)NNC(=O)c2ccccc2)c1)c1ccccc1", "displacement": -6.9}
{"smiles": "N#Cc1c(NC(=O)/C=C/c2ccccc2)sc2c1CCCC2", "displacement": 5.2}
{"smiles": "COc1ccc(S(=O)(=O)N(CC(=O)Nc2cc(Cl)ccc2C)Cc2ccccc2)cc1", "displacement": -6}
{"smiles": "Brc1cccc(-c2nnc(SCc3ccccc3)o2)c1", "displacement": -18.6}
{"smiles": "O=C(Nc1ccc(I)cc1Cl)c1cccs1", "displacement": -12.3}
{"smiles": "O=C(Nc1ccncc1)c1cc(Cl)ccc1Cl", "displacement": 3.7}
{"smiles": "O=C(Nc1cccc2c1CCCC2)c1ccc(Br)cc1", "displacement": -4.8}
{"smiles": "N#C/C(=C\\c1ccc(O)cc1)c1nc(-c2ccc(-c3ccccc3)cc2)cs1", "displacement": 21.6}
{"smiles": "O=C(Cn1c(O)c(N=NC(=O)C(=O)NCc2ccccc2)c2ccccc21)Nc1ccccc1", "displacement": -2.3}
{"smiles": "CCSc1nnc2n(-c3ccc(OC)cc3)c(=O)c3c4c(sc3n12)CCCC4", "displacement": 119}
{"smiles": "COCCOC(=O)C1=C(C)NC2=C(C(=O)CCC2)C1c1ccc([N+](=O)[O-])cc1", "note": "(stereo unspecified)", "displacement": 5.9}
{"smiles": "Cn1ccc(C(=O)N/N=C/c2cccc(OCc3ccccc3)c2)n1", "displacement": 4.1}
{"smiles": "O=C(NCS(=O)(=O)c1ccccc1)c1ccccc1", "displacement": 4.9}
{"smiles": "CCN(CC)c1ccc(NC(=O)COc2ccc(C)cc2C)cc1", "displacement": 5.6}
{"smiles": "COc1ccc(-c2nc(-c3ccc(F)cc3)no2)cc1OC", "displacement": -7.7}
{"smiles": "C=CCn1c(-c2ccccc2C)n[nH]c1=S", "displacement": -1.6}
{"smiles": "COCCNC(=O)C(=O)Nc1ccccc1", "displacement": 7.5}
{"smiles": "O=C(N/N=C/c1ccc[nH]1)c1sc2ccccc2c1Cl", "displacement": -5.4}
{"smiles": "O=C(O)/C=C\\C(=O)Nc1ccc(Nc2ccccc2)cc1", "displacement": -1.2}
{"smiles": "CN(C)C(=S)NC(=O)C12CC3CC(C)(CC(C)(C3)C1)C2", "displacement": -7.4}
{"smiles": "CCOC(=O)C1=C(C)NC(=O)CC1c1ccc([N+](=O)[O-])cc1", "note": "(stereo unspecified)", "displacement": -4.1}
{"smiles": "CCOC(=O)c1c(-c2ccc(C3CCCCC3)cc2)csc1N", "displacement": 0.7}
{"smiles": "CSc1nc(-c2ccccc2)nc2[nH]ccc(=O)c12", "displacement": 110}
{"smiles": "O=C(N/N=C/c1ccccc1F)C(=O)N1CCCC1", "displacement": 9.8}
{"smiles": "O=C(CC(=O)Nc1cccc(C(F)(F)F)c1)Nc1cccc(C(F)(F)F)c1", "displacement": -6.9}
{"smiles": "O=C(O)CCCCCN1C(=O)C(=O)/C(=C(/O)c2ccc([N+](=O)[O-])cc2)C1c1ccccc1Cl", "note": "(stereo unspecified)", "displacement": -0.8}
